The values below come from publication PMC4336329 (PLoS ONE, 2015).

The whole screen tested about 310,000 compounds, of which about 14,000 (4.5%) showed an effect of 50% or more. The effect is printed as a negative number. The list shows a part of the results.
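Further: peak tail current of the secondary pulse compared with the same well before compound.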

The experiment deals with human ether-à-go-go-related gene (hERG) potassium channel (human, UniProt Q12809). As to the kind of experiment: primary screen, population patch clamp on CHO cells stably expressing hERG.
Chain of human ether-à-go-go-related gene (hERG) potassium channel (Q12809 whole entry, looked up): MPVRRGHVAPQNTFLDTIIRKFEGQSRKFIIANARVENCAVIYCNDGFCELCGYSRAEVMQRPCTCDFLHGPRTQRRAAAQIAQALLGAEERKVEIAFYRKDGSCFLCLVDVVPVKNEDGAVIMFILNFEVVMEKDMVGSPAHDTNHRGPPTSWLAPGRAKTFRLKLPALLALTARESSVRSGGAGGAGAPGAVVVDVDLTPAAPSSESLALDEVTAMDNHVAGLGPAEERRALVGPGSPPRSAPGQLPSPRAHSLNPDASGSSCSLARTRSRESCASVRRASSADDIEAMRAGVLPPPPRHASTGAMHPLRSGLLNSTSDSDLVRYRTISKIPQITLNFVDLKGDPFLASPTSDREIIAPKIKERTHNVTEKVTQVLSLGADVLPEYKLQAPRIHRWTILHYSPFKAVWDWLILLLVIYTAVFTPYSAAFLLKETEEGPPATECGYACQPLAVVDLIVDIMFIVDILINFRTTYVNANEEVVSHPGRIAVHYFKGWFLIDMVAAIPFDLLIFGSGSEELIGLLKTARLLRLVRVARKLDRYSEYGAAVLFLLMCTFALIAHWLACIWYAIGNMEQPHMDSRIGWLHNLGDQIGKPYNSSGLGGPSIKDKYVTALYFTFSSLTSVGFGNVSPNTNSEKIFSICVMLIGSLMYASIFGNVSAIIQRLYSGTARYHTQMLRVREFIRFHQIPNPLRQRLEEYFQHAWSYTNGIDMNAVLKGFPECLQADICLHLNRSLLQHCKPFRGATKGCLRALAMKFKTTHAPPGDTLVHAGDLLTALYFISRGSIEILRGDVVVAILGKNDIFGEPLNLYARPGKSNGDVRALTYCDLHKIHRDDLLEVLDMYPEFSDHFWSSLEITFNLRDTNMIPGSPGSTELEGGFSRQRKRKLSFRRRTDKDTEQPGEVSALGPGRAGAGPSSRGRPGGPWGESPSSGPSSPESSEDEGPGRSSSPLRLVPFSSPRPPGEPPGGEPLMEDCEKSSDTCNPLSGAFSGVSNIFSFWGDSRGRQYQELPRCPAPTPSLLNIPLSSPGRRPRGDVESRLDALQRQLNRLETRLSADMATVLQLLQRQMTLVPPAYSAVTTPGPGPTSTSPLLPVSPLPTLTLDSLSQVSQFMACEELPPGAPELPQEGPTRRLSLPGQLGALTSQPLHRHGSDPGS
In the case of `COc1ccc(OC)c(NC(=O)C23CC4CC(C2)CC(n2cnc(Br)n2)(C4)C3)c1`, the “hERG current change (%, negative = inhibition) at 10uM” value is reported as -41.2%. As for `Cc1cccc(NC(=S)N/N=C2/CCCCc3ccccc32)c1`, the figure is 15.2%; as for `COc1ccccc1N1CC(C(=O)Nc2ccc(N3CCOCC3)cc2)CC1=O` (centres unmarked), 15.1%. As for `Cc1cc(=O)oc2cc3c(cc12)OCO3`, the figure is 11.8%. On to `O=C1CN(C(=O)c2cccc([N+](=O)[O-])c2)CC(=O)N1`, for which the “hERG current change (%, negative = inhibition) at 10uM” value is reported as 13.4%. As to `Cn1c(NC(=O)/C=C/c2ccccc2)cc(=O)n(C)c1=O`, the “hERG current change (%, negative = inhibition) at 10uM” value is given as -3.21%. With `Cc1ccc(S(=O)(=O)N2CCOCC2)cc1C(=O)N1CCCCCC1`, the “hERG current change (%, negative = inhibition) at 10uM” value is on record as -13.4%. The figure for `O=C(O)C=C(Br)Br` is 3.44%; for `CNC(=O)c1[nH]cnc1C(=O)Nc1cccc(OC)c1` it is 2.87%; for `COc1ccc(C(=O)Nc2ccnc(-c3cccnc3)n2)cc1` it is -21.7%.

Turning to `c1ccc(CNc2ncnc3nc[nH]c23)cc1`, the “hERG current change (%, negative = inhibition) at 10uM” value is given as -4.7%. As for `O=c1cc(-c2c(F)c(F)c(F)c(F)c2F)oc2ccccc12`, the figure is 17.7%.

For the compound `CCCCn1c(N)c(N(CCOC)C(=O)CC(NC(=O)c2ccccc2)c2ccccc2)c(=O)[nH]c1=O` (centres unmarked), the “hERG current change (%, negative = inhibition) at 10uM” value is reported as -24.6%. As for `COc1cc2c(cc1OC)C(C)N(C(=O)c1cccs1)CC2` (centres unmarked), the figure is -4.17%; as for `Cc1ccc(S(=O)(=O)N2CCN(C(=O)CSc3nnc(C)s3)C2)cc1`, 10%. The figure for `Nc1nc(N)nc(-c2cccc(Cl)c2)n1` is 1.8%; for `Cc1nc2c3ccccc3[nH]c(=O)n2n1` it is -5.96%; for `CNc1nc(C)c(C(C)(C)C)s1` it is 14.3%. Take `CCOc1cccc(-c2nnc3sc(COc4ccccc4)nn23)c1`: the “hERG current change (%, negative = inhibition) at 10uM” value is reported as -12.2%. As for `CC(=O)N1CCN(C(=S)NCCc2ccccc2)CC1`, the figure is -4.66%; as for `COc1ccc(CC(=O)Nc2nnc(SCc3ccccc3)s2)cc1S(=O)(=O)N1CCOCC1`, -10.8%. Take `Cc1ccc2c(Cl)cc(Cl)c(OCc3c(C)noc3C)c2n1`: the “hERG current change (%, negative = inhibition) at 10uM” value is given as 8.92%.

Take `FC(F)(F)c1ccc(Cl)c(NC(=S)N/N=C/c2ccccc2C(F)(F)F)c1`: the “hERG current change (%, negative = inhibition) at 10uM” value was 20.2%. Regarding `Cc1ccc(C(=O)C(C)OC(=O)Cc2n[nH]c(=O)c3ccccc23)cc1C` (centres unmarked), the “hERG current change (%, negative = inhibition) at 10uM” value was -15.6%. As for `CCOc1ccc(S(=O)(=O)Nc2cccc(C(=O)N3CCN(c4ccccc4O)CC3)c2)cc1`, the figure is 3.16%; as for `CCN1CCN(CCC(=O)Nc2ccc(F)c(F)c2)CC1`, -17.1%.
